PMC12136788
The list shows a part of the results.

B1: chr3:148802587:148802588:-_ENSG00000071794_ENST00000310053|hu_mus|hu_hu_hu_mus_False|78_98 (ssRNA)
RNA: GGGAGUUCUACAGUCCGACGAUCUCCAACAACUUGUCCUCUCAAACUUCCAAAUAAAACGGAAUCUUGCUCUUCAUCACUCGUUAGGAAGUCAUCUGGAGGAAUAAUGUCUUGGAAUUCAAAAUGUGGCAAGAAAGUUGAGUACAACAGAGGAUUGAGCAUCA
B2: chr3:105487335:105487336:-_ENSMUSG00000027905_ENSMUST00000090680|mus_hu|FALSE|FALSE (ssRNA)
RNA: GGGAGUUCUACAGUCCGACGAUCAACAGAAUGUAUCUGUACAGCAAUUUCUCUUGUAGGAGCCAAGAUCAAAAUCUGGGUACUUAAGUUUUCAAGAACAAGAGAGUCCAAAGCUAUGGUGGAGAACACACAGGUUUUCCCGGUCAACAGAGGAUUGAGCAUCA
B3: chr16:13687521:13687522:+_ENSMUSG00000022684_ENSMUST00000023365|mus_mus|FALSE|FALSE (ssRNA)
RNA: GGGAGUUCUACAGUCCGACGAUCGGCUGCAAGACUUUGGACUACAUCAUUAUUCUGCUGAAUGUCUUCAACUCGCAUUCUAAUGGCAUCAGGAAAUAACUUUUCAAUGGCAUCCCUGAGGAGAAUGUUGACUUUAGGAAAACCCAACAGAGGAUUGAGCAUCA
B4: chr1:109605286:109605287:-_ENSG00000197780_ENST00000461096|hu_mus|hu_hu_hu_mus_True|8_18 (ssRNA)
RNA: GGGAGUUCUACAGUCCGACGAUCAAGUUUCAGAGUAACAUUCAGUAACCUCUUUAAAUGCAAUUAUCCUUAUUAUAAGCUAAGCAGAAUAAUAAUUUAAUACCGUAAGUGAACUACCACAAAACCUGUGUAUUCAGAAAUGGUCAACAGAGGAUUGAGCAUCA
B5: 97528413_97530788_701_CDS_ENSMUSG00000038437_ENSMUST00000044730|mouse|control|control (ssRNA)
RNA: GGGAGUUCUACAGUCCGACGAUCGCUGCCUCCUCCUGCUCCUCCUCCUCCCCCGCUGGAGUGCCGGGAUGUCUUCAUCUUGCUGAAGUGGUAUUUGCAGUAGCCGCAGUACUUGACGUUGUCCACCUCCAGGACUUCUUCCUCCAACAGAGGAUUGAGCAUCA
B6: chr12:4461469:4461470:+_ENSG00000078237_ENST00000179259|hu_mus|FALSE|FALSE (ssRNA)
RNA: GGGAGUUCUACAGUCCGACGAUCGCUUUCUCUCUGCCCUGCCUUGCCCAGGAUUAGCUGACAAAUGAAAUCAAAGAAAUCCUUUCCGCGCAUCUUUACCUGCUCAACUGUCUCUCCUCCAGGCGGGGUGAACAUGGGGCACUCCAACAGAGGAUUGAGCAUCA
B7: 47001521_47005262_636_CDS_ENSG00000069345_ENST00000317089|human|control|control (ssRNA)
RNA: GGGAGUUCUACAGUCCGACGAUCACUACACUUUUGGACAGCUCCAGACUUUCCGCCUUGGCCACUGCAUGCACUACAGAGCACAUUCUUGCUAAGUUGUAGUUUGGUUGUCUUGCCAUUAUACAGAUCUUCUAAAGAUACUUUCAACAGAGGAUUGAGCAUCA
B8: chr11:100882373:100882374:+_ENSMUSG00000019302_ENSMUST00000044721|mus_mus|mus_mus_mus_hu_True|1_48 (ssRNA)
RNA: GGGAGUUCUACAGUCCGACGAUCUUCCUGGUUUGUGUUGAUUUCCUUCAGUUCAUUUUCAAUCUUCUCAAAAUUGGCCUCUAAGUCGAUCAUGUCCCGGGGGAAGGGAACCUCUGGGUUUUCACCGGUGUCCAUAAUUGGGAUCAACAGAGGAUUGAGCAUCA
B9: chr22:19452774:19452775:-_ENSG00000070010_ENST00000399523|hu_mus|FALSE|FALSE (ssRNA)
RNA: GGGAGUUCUACAGUCCGACGAUCCUUCUCAUUGUAGUUGAUAGCAAUCACAUCUCCAGUCGUCAGACAGGCGAAGUUUCUCAAUGCAUUUUCUAAUACCGCUUUAGGGUUGGUAAUAUCCAGGAAGUCUGGGCUCUGAGGCUGCAACAGAGGAUUGAGCAUCA
B10: 91665463_91715946_2812_CDS_ENSMUSG00000040506_ENSMUST00000045705|mouse|control|control (ssRNA)
RNA: GGGAGUUCUACAGUCCGACGAUCCCACCACUGGAGCCUGUAGGUAGUAUUGGCAAUGUUACUGGCCACAGCAGACUGUCCAUCUCCAAUUACUGCCCCUGCCAGGACCCUGUUAACAGAAGAAUGAGUAGCCAAGCCAGGCUGCAACAGAGGAUUGAGCAUCA
B11: chr2:120444880:120444881:+_ENSMUSG00000027285_ENSMUST00000124187|mus_mus|FALSE|FALSE (ssRNA)
RNA: GGGAGUUCUACAGUCCGACGAUCUCACUUGGCCCUGGAGGUUUCGGUGUGAGCCUUAGGAAAAAAAGGUAAAGGAGGCACUAUGUCAAGUUCAUGAAGAUGGCGUUCUUCAGUUAGCAUUUUGGGGAUAUACAAGGAAAUUUCCAACAGAGGAUUGAGCAUCA
B12: chr9:114657494:114657495:+_ENSMUSG00000032434_ENSMUST00000035007|mus_mus|FALSE|FALSE (ssRNA)
RNA: GGGAGUUCUACAGUCCGACGAUCGAUUGUCUCAGGUAUUUUGUUAUAGAAACAGUCAGCAGACUAAUAGUUGGUAACACUAAAGUAGCUCAGAUUUGCUGUUAAUUCUCAAUAGGUCUAAAUGAUAUUUACAGCACAGCUUGACAACAGAGGAUUGAGCAUCA
B13: chr7:28127222:28127223:-_ENSMUSG00000089832_ENSMUST00000003857|mus_mus|FALSE|FALSE (ssRNA)
RNA: GGGAGUUCUACAGUCCGACGAUCUUUUAUUGGAGAUAGUGGCUUUGGCUUUUAGAAAAGGAGAGAGGUGGGAACCUGGCGACACAGAUUACACCAAGGAGCCCCUGGCCCUGGCUCCAACAGGAAGCCCCCUCCCCAGUUCCACAACAGAGGAUUGAGCAUCA
B14: 45362850_45362970_6999_3pUTR_ENSG00000175387_ENST00000356825|human|control|control (ssRNA)
RNA: GGGAGUUCUACAGUCCGACGAUCGGUCUGUCCAUGAAAGGAAAAUGUACACAGACAAAUUAAGAACAUUUUACCAGGAUCUGAGAUUUAAACAAUGGAACAAUUGUUUUAACUGUUAGAAUGACCCCAACUGUUAAGUUUGUCCAACAGAGGAUUGAGCAUCA
B15: 5830942_5832723_454_3pUTR_ENSG00000099219_ENST00000339450|human|control|control (ssRNA)
RNA: GGGAGUUCUACAGUCCGACGAUCCCAAAAGGUAGUGCACGGUCAGAAUUUCAUUUUCUGGACUUCCUGUAGUCCUGGGGCCAAUGGAGGUUAUGUGUUCAAGAUAAUCCCUGGCUUGGAGCGCGUCGAACUCCCCGCGGUGUCCAACAGAGGAUUGAGCAUCA
B16: chr11:60966614:60966615:-_ENSMUSG00000042506_ENSMUST00000041683|mus_mus|FALSE|FALSE (ssRNA)
RNA: GGGAGUUCUACAGUCCGACGAUCGAGCAGCGGCCGCUUAGUUUUGCCACAGCUAUGUCAUUCCAUCGCAAUUCGCUAGCUAAGGAGCUGGGCUGGGCCCUGUACUGCUCUUUUAUAGCCUGUAAGUGAAAAAACAAAAUCUUACAACAGAGGAUUGAGCAUCA
B17: chr16:94690093:94690094:+_ENSMUSG00000040785_ENSMUST00000117648|mus_hu|mus_mus_mus_hu_True|1_58 (ssRNA)
RNA: GGGAGUUCUACAGUCCGACGAUCGGGCUGGGAUGACGGACACACAGCCUCGAUUCCAGGGGGAAAAAGUCUUAGUCAAUACUAAUUAAAAAGUGUUAAUGAUUUUUGAAAAUCAGAUUACAUCUAUAAAAGAUGAAAGCACUUCAACAGAGGAUUGAGCAUCA
B18: chr6:38489255:38489256:+_ENSMUSG00000019689_ENSMUST00000019833|mus_mus|motif|central (ssRNA)
RNA: GGGAGUUCUACAGUCCGACGAUCCACUGAACGCUCACCCUUGCCAUGAAAUUCCUGAUGAAGGGCUACAUGUUGCCGGAUGCGGCUCAAAAGGCAGAGAUAGGUGGCAGCUUGGAAGUGAAGUUCGUGUUGGGCUCUACACAACAACAGAGGAUUGAGCAUCA
B19: chr8:117878989:117878990:-_ENSG00000164754_ENST00000297338|hu_hu|hu_hu_hu_mus_True|58_108 (ssRNA)
RNA: GGGAGUUCUACAGUCCGACGAUCCCAGAGGCCCUCUUUUACUGAGGACAAAAUGUGCGUAGAACAUUUUUCUUAUUGGCUAUGAAAUAAGAAGAAACCUGGAUCUCGGCGGGGAGCCGGGAGGGGUGGGUGGCCCGGGGAGGGCAACAGAGGAUUGAGCAUCA
B20: chr7:116558156:116558157:+_ENSG00000198898_ENST00000458284|hu_hu|motif|central (ssRNA)
RNA: GGGAGUUCUACAGUCCGACGAUCAAAAACUUUUAACCAUAAACUAGAAGAAUCAUCUCUUCAUUGUAAGAAAGAAAGGCCGGACAGAAAGACAUUUAAACUAAACUGAUUUUCAAUCCUCUUAGAACAAACAAAAUGAAAAAUCAACAGAGGAUUGAGCAUCA
B21: chr3:176767854:176767855:-_ENSG00000177565_ENST00000430069|hu_hu|hu_hu_hu_mus_False|38_98 (ssRNA)
RNA: GGGAGUUCUACAGUCCGACGAUCGACAUCCUUGUUACUUGGAACAUCCUGCCCUCCUUCCCGUAUGCAGUGUCUAAGCACGAGCUGCGUAGGGCCACUGGUGCUGUUCUCACUGAGGUUCCAGAUUCUUGCCGUGGAGUCUCCCAACAGAGGAUUGAGCAUCA
B22: 154938123_154938243_1682_CDS_ENSG00000160691_ENST00000448116|human|control|control (ssRNA)
RNA: GGGAGUUCUACAGUCCGACGAUCCCCAUUGAGCUGCAGCAGUGCCUCAGCCUCCCGCCGGCUCAGCUUCCCAUGGAACCAGGGCUCCCCUCGGAGCUGCUCAGCCAUGGACACCGACUGGGGAGGUGGAGGCACGCGAAGAGCCAACAGAGGAUUGAGCAUCA

Each binder was assayed against T1, UNK ZnF1-3 (human, UniProt Q9C0B0 31-174) (assay: nsRBNS (natural sequence RNA bind-n-seq); RBNS binding buffer (assumed for nsRBNS): 25 mM Tris pH 7.5, 150 mM KCl, 3 mM MgCl2, 0.01% Triton X-100, 500 ug/ml BSA, 20 U/ml SUPERase-In, 4 C; UNK is unkempt and MSI1 is Musashi-1; names of the RNAs are library labels; protein concentration not given here; high values mean tight binding).
T1 sequence: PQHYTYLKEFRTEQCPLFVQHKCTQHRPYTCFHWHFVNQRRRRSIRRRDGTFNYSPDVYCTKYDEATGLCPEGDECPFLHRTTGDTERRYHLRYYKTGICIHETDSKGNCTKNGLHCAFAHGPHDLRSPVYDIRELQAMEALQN

| Binder | binding signal [enrichment R] |
| --- | --- |
| B1 | 0.912 |
| B2 | 0.787 |
| B3 | 1.16 |
| B4 | 0.556 |
| B5 | 0.795 |
| B6 | 1.33 |
| B7 | 0.589 |
| B8 | 0.61 |
| B9 | 0.735 |
| B10 | 0.888 |
| B11 | 1.72 |
| B12 | 0.78 |
| B13 | 1.52 |
| B14 | 0.915 |
| B15 | 0.939 |
| B16 | 0.656 |
| B17 | 0.873 |
| B18 | 0.977 |
| B19 | 1.7 |
| B20 | 1.29 |
| B21 | 0.603 |
| B22 | 0.361 |
